Measured values as given in publication PMC6919601, “Identification of Plasmodium dipeptidyl aminopeptidase allosteric inhibitors by high throughput screening” (PLoS ONE, 2019).
The campaign covered roughly 110,000 compounds. About 230 (0.21%) showed an effect of 50% or more. This is one part of the list.

These compounds were tested against DPAP1 (Plasmodium falciparum, UniProt Q8IIJ9) (assay: primary screen, percent inhibition; read by cleavage of a fluorogenic dipeptide substrate; higher = more effect of the substance).
Set-up: species or system P. falciparum D10 trophozoite lysates; single well
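Note: 30 min substrate incubation versus DMSO and 10 µM JCP410 controls.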

Chain of DPAP1 (Q8IIJ9 whole entry, looked up): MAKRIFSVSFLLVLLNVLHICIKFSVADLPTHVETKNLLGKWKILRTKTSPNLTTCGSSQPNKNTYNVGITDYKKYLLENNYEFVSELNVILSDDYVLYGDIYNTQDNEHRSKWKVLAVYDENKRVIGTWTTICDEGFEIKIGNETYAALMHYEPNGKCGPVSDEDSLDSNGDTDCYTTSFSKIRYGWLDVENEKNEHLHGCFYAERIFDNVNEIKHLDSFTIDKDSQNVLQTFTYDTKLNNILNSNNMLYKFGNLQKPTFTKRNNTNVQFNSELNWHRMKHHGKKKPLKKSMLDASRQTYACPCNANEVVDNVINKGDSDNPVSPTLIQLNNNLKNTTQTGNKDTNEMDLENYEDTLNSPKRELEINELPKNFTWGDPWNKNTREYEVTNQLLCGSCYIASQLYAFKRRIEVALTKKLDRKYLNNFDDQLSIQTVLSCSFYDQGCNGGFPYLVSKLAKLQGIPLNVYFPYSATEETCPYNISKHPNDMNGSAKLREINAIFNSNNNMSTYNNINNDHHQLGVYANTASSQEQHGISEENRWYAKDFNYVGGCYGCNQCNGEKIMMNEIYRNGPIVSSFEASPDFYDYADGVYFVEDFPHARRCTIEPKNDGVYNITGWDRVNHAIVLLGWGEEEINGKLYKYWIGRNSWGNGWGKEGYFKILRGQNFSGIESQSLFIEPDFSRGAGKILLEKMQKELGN

Row | SMILES | % Inhibition @ 10 uM [%]
1 | C/C(=C\C(=O)N1CCN(C)CC1)C(=O)O | -0.128
2 | O=C1/C(=C\c2cccnc2)Sc2ccccc21 | -4.4
3 | O=C1CCC(=O)N1c1cccc2c(N3C(=O)CCC3=O)cccc12 | -4.46
4 | O=C(NCc1ccc2c(c1)OCO2)c1cc(O)nc2ccc(Br)cc12 | -1.79
5 | C=CCN(Cc1nc(-c2ccc(C)cc2)no1)S(=O)(=O)c1c(C)cc(C)cc1C | 2.41
6 | CCN1C/C(=C\c2cccn2C)C(=O)/C(=C/c2cccn2C)C1 | -1.31
7 | Brc1ccc(N2N=C(c3ccccc3)CC2c2ccccc2)cc1 (centres unmarked) | -8.22
8 | Cc1ccccc1Cn1c(C)c(CNCc2ccco2)c(C(=O)O)c1C | -0.23
9 | CCC(=O)NC(C)c1nc2ccccc2n1Cc1ccccc1 (centres unmarked) | 2.73
10 | COc1cc(CN(C(=S)NCC(=O)O)C2CCCC2)cc(OC)c1OC | -0.256
11 | Cc1c(C)n(CCC#N)c2ccccc12 | 3.72
12 | Nc1c(C(=O)Nc2ccc3ccccc3c2)sc2nc3c(cc12)CCC3 | 2.38
13 | COc1ccc(N2C(=O)C(Cl)=C(Nc3cc(C)cc(C)c3)C2=O)cc1 | 2.68
14 | CC(=O)c1ccccc1OCC(O)Cn1ccnc1C (centres unmarked) | -1.11
15 | Cc1ccc(N(CC(=O)Nc2ccc(C(N)=O)cc2)S(=O)(=O)c2ccccc2)cc1C | 12.7
16 | CCCCn1c(=O)n(Cc2ccccc2Cl)c2c1c(=O)n(C)c(=O)n2C | -7.09
17 | CCc1nn2cc(-c3ccccc3OC)nc2s1 | -2.71
18 | COc1nc2ccccc2nc1OC | -1.45
19 | Cn1c2c(c(=O)c3ccccc31)CCC(C)(C)O2 | 0.709
20 | COc1ccc(-n2cccc2C=C2C(=O)NC(=O)NC2=O)cc1 | 3.86
21 | Cc1nnc2c(NCc3ccco3)nc3ccc(C(=O)c4ccccc4)cc3n12 | -6.09
22 | Cn1c(N2CCOCC2)nc2c1c(=O)n(Cc1c(F)cccc1Cl)c(=O)n2C | 1.97

Row | SMILES | % Inhibition @ 10 uM [%]
23 | Cc1ccc(S(=O)(=O)NCCCCCC(=O)NC(C)(C)CO)cc1 | 3.87
24 | Cc1nc2ccc(S(=O)(=O)NC(C(=O)NC3CCCC(C)C3C)C(C)C)cc2s1 (centres unmarked) | 1.62
25 | COc1ccc(NC(=O)CNS(=O)(=O)c2ccc(C)cc2)cc1OC | -2.73
26 | Cc1nn(CCCC(=O)NCCCN2CCOCC2)c(=O)c2cc3sccc3n12 | 0.137
27 | O=C(c1nsc2ccccc12)N1CCCCC1 | 10.5
28 | COc1ccc(C2CC(=O)Nc3c2c(=O)n(C)c2ncnn32)cc1OC (centres unmarked) | 4.46
29 | O=C1c2ccccc2C(=O)N1Cc1ccc2c(c1)OCO2 | 2.39
30 | Cc1ccc(CNCc2cccn2-c2nnc(N3CCOCC3)s2)o1 | -1.61
31 | CCOc1cc(C2C3=C(CC(C)(C)CC3=O)OC3=C2C(=O)CC(C)(C)C3)c(Br)cc1O | -0.173
32 | COc1ccc(NC(=O)CN(c2ccccc2)S(=O)(=O)c2ccccc2)c(OC)c1 | 0.0265
33 | Cc1cc2c(c(=O)n1CC1CCCO1)C(c1cc3c(cc1Br)OCO3)C(C#N)=C(N)O2 (centres unmarked) | 2.31
34 | Cc1ccccc1Nc1nc(-c2ccc(Cl)cc2)c(C)s1 | 1.7
35 | CN(C)C(=O)N1CCCC(C(=O)NCc2ccccc2)C1 (centres unmarked) | 2.05
36 | Cn1ccnc1SCC(=O)Nc1nc(-c2ccccc2)cs1 | 0.751
37 | COc1ccccc1-n1c(S)nnc1CNC(=O)c1ccc(S(=O)(=O)N2CCOCC2)cc1 | -3.98
38 | CCOC(=O)C1=C(CC)OC(N)=C(C#N)C1c1ccc(C(F)(F)F)cc1 (centres unmarked) | -5.96
39 | COCCCNC(=O)C1=CCN(S(=O)(=O)c2ccc(OC)cc2)CC1 | 1.93
40 | Cc1nn(-c2ccccc2)c2c1N(CC(=O)NCCCc1ccccc1)C(=O)CS2 | 0.762
41 | CCOc1cccc(NC(=O)c2ccc(C(C)(C)C)cc2)c1 | 3.24
42 | CC1=C(c2ccc(Cl)cc2)S(=O)(=O)N=C1N1CCC(C(=O)NCCC(C)C)CC1 | -1.38
43 | COc1ccc2nc(C)c(C(=O)N3CCN(Cc4ccccc4)CC3)cc2c1 | 2.77
44 | C=CCc1cccc2cc(C(=O)Nc3ccccc3O)c(=O)oc12 | 1.13

Row | SMILES | % Inhibition @ 10 uM [%]
45 | CC(C)c1ccc(C2=CC(c3cc(Br)ccc3OC(F)F)n3nnnc3N2)cc1 (centres unmarked) | -3.46
46 | O=C(NC1CCCC1)C1CCN(c2ccc(-c3cccs3)nn2)CC1 | -3.98
47 | C/C(=N\[C@@H](CS(=O)(=O)Cc1ccccc1OC(F)F)C(=O)NCC#N)NS(=O)(=O)c1cccnc1 | -3.14
48 | CCn1c(C(=O)N2CCCC(C(=O)NCCCc3ccccc3)C2)cc2sccc21 (centres unmarked) | -3
49 | COc1cccc(-c2cc(C(=O)Nc3cccc(C(C)=O)c3)c3ccccc3n2)c1 | -1.12
50 | O=C(CCCCCNS(=O)(=O)c1ccc(Br)cc1)NCc1ccccc1 | -1.99
51 | CN(CC(=O)O)S(=O)(=O)c1ccc2c(c1)OCCO2 | 2.73
52 | COc1ccc(CNCc2ccccc2OC)cc1Br | 2.26
53 | Cc1nnc(N2CCC(C(=O)NCCC3=CCCCC3)CC2)c2nn(-c3ccc(Cl)cc3)c(C)c12 | 4.54
54 | C=CCSc1ncnc2sc3c(c12)CCCC3 | 43.1
55 | CC(=O)N1c2ccccc2N=C2CC(C)(C)CC(O)=C2C1c1ccc(-c2cccc(C(=O)O)c2)o1 (centres unmarked) | -2.54
56 | O=S(=O)(Nc1ccc(Cc2ccncc2)cc1)c1ccc(Br)cc1 | -3.03
57 | O=C(CN1C(=O)S/C(=C/c2cccc(O)c2)C1=O)Nc1cccc2ccccc12 | 13.3
58 | Cc1nc2ccc(NC(=O)N3CCN(c4ccccn4)CC3)cc2s1 | -4.15
59 | Brc1cnc(N2CCOCC2)nc1 | -8.63
60 | CCCCCOc1ccc(C(=O)Nc2nonc2CC)cc1 | -3.49
61 | OCC1CCCN1C1CCCCCC1 (centres unmarked) | 2.99
62 | Cc1cc(OCC(O)CNC(C)(C)C)ccc1C(C)C (centres unmarked) | -2.34
63 | Cc1cc(C)nc(-n2nc(C)cc2Nc2ccccc2)n1 | -0.479
64 | CC(=O)NCc1nc2ccccc2n1C | 4.02
65 | CCc1ccc(CN(Cc2ccco2)C(=O)c2ccc(F)cc2)cc1 | 0.635
